{"source": "PubChem BioAssay AID463173", "about": "(ICCB-Longwood Screening Facility, Harvard Medical School, 2010)", "note": "Hit rate of the full screen: of about 52,000 compounds, about 1,700 (3.3%) were called active. No stated cut-off is given here; in the data, active means survival mostly below about 52% (no sharp cut-off); inactive means mostly above about 56%. The list shows a part of the results.", "data": [{"test_system": "Wild type", "assay": "growth inhibition of S. aureus wild type versus tarO mutant, primary screen, teichoic acid synthesis inhibitors, RN4220, OD600 (AID 463173)", "conditions": "S. aureus RN4220 wild type/DeltatarO growth, OD600, 18 h, active compounds read low, screened at 18.75 µg/mL (by protocol)", "values": [{"compound": "Cc1oc(C)c2c(=O)cc(-c3ccc4c(c3)OCO4)cc(OC(=O)c3ccc(Cl)cc3)c12", "survival": "inactive: 112%"}, {"compound": "CCC(Sc1nc2ccccc2c2nc(CCc3c(C)n[nH]c3C)nn12)C(=O)Nc1ccccc1F", "note": "(centres undefined)", "survival": "inactive: 91%"}, {"compound": "COc1ccccc1Cn1c(CNS(=O)(=O)c2cccc([N+](=O)[O-])c2)nc2cccnc21", "survival": "inactive: 55%"}, {"compound": "Cc1cccc(C)c1NC(=O)CSCc1cnn(-c2ccccc2)c1-n1cccc1", "survival": "inactive: 74%"}, {"compound": "COc1ccc(C)cc1NC(=O)CCn1nc(C)cc1C", "survival": "inactive: 121%"}, {"compound": "CCN(CC)C(=O)C1=C(C)Nc2nc3ccccc3n2C1c1cccc(Cl)c1", "note": "(centres undefined)", "survival": "inactive: 77%"}, {"compound": "CCOC(=O)c1c(C)n(C(=O)c2ccco2)c(=O)n1C(=O)c1ccco1", "survival": "inactive: 112%"}, {"compound": "COC(=O)c1ccc(NC(=O)CSc2n[nH]c(CC(C)C)n2)cc1", "survival": "inactive: 69%"}, {"compound": "O=C(O)C1C2C=CC(C2)C1C(=O)NCCCN1CCOCC1", "note": "(centres undefined)", "survival": "inactive: 110%"}, {"compound": "CC1CCN(CC(C)OC(=O)c2ccc3c(c2)OCCO3)CC1", "note": "(centres undefined)", "survival": "inactive: 104%"}, {"compound": "O=C(CN1CCCC1)Nc1nc(-c2ccc3c(c2)CCN3C(=O)C2CC2)cs1", "survival": "inactive: 116%"}, {"compound": "COc1ccc(CNC(=O)c2cc3cccc(OC)c3oc2=O)cc1", "survival": "inactive: 90%"}, {"compound": "COc1cccc(CNC(=O)c2nn(C)c3c2CS(=O)(=O)c2ccccc2-3)c1", "survival": "inactive: 81%"}, {"compound": "Nc1nc2c(c(=O)[nH]1)CCC2", "survival": "inactive: 99%"}, {"compound": "CCn1cc(C(=O)N2CCN(c3ccc(OC)cc3)CC2)c(=O)c2cc(S(=O)(=O)N(C)C3CCCCC3)ccc21", "survival": "inactive: 128%"}, {"compound": "COc1ccc(NC(=O)CSC2=Nc3ccccc3C3=NC(CCC(=O)NCCc4ccccc4)C(=O)N23)c(OC)c1", "note": "(centres undefined)", "survival": "inactive: 70%"}, {"compound": "O=C(NCc1ccco1)c1ccc2c(c1)N(Cc1ccccc1F)C(=O)c1ccccc1S2=O", "note": "(centres undefined)", "survival": "inactive: 87%"}, {"compound": "c1cc(CNc2ccc3c(c2)OCCO3)ccn1", "survival": "inactive: 109%"}, {"compound": "Cc1cccc(OC(=O)c2cc(-c3ccc(Cl)cc3)on2)c1C", "survival": "inactive: 116%"}, {"compound": "N#Cc1c(N)nc(SCC(=O)c2cc3ccccc3oc2=O)c(C#N)c1-c1ccc(O)cc1", "survival": "inactive: 108%"}, {"compound": "CC(C)CN(CCCNC(=O)c1cn(C)c2ccc(S(=O)(=O)N(C)C3CCCCC3)cc2c1=O)CC(C)C", "survival": "inactive: 89%"}, {"compound": "COc1cccc(NC(=O)C(CCSC)NC(=O)C2CCC(C)CC2)c1", "note": "(centres undefined)", "survival": "inactive: 92%"}, {"compound": "COc1ccc(CNC(=O)c2cc(C)nc3c2c(C)nn3-c2cccc(Cl)c2C)cc1", "survival": "inactive: 72%"}, {"compound": "CC1(C)NC(=O)N(CC(O)CN(Cc2ccccc2)Cc2ccccc2)C1=O", "note": "(centres undefined)", "survival": "inactive: 103%"}, {"compound": "COc1ccc(C)cc1NC(=O)CC(=O)Nc1ccc2nc3n(c(=O)c2c1)CCCCC3", "survival": "inactive: 116%"}, {"compound": "CCOc1ccc(S(=O)(=O)N(C(=O)c2ccncc2)c2ccc3oc(C)c(C(=O)OC)c3c2)cc1", "survival": "inactive: 129%"}, {"compound": "CCOc1ccc(C2=CC(c3cc(Br)ccc3F)n3ncnc3N2)cc1Cl", "note": "(centres undefined)", "survival": "inactive: 64%"}, {"compound": "CC(C)CSc1oc(-c2ccco2)nc1S(=O)(=O)c1ccc(Br)cc1", "survival": "active: 27%"}, {"compound": "CCOc1ccc(-n2c(=O)c3c(C)c(C)sc3n(Cc3cc(=O)n4cc(Cl)ccc4n3)c2=O)cc1", "survival": "inactive: 92%"}, {"compound": "CN(C(=O)CSc1nc2ccccc2n1Cc1cccc(C(F)(F)F)c1)c1ccccc1", "survival": "inactive: 87%"}, {"compound": "Cc1nn(CC(=O)Nc2cccc(C(F)(F)F)c2)c(=O)c2nn(-c3ccccc3)c(C)c12", "survival": "inactive: 78%"}, {"compound": "CCOC(=O)c1c(NC(=O)Cn2nnc3ccccc32)sc2c1CCC(C)C2", "note": "(centres undefined)", "survival": "inactive: 104%"}, {"compound": "O=C(NCCc1csc(-c2ccc(F)cc2)n1)c1c(F)cccc1Cl", "survival": "inactive: 127%"}, {"compound": "O=C(COC(=O)c1cc(-c2ccccc2)nc2c(Cl)cccc12)c1ccc(F)cc1", "survival": "inactive: 81%"}, {"compound": "Cc1ccc(NC(=O)c2ccc3[nH]c(C)cc(=O)c3c2)c(C)c1", "survival": "inactive: 85%"}, {"compound": "Cc1ccc(NC(=O)Cc2coc3c(C)c(C)ccc23)cc1Cl", "survival": "inactive: 93%"}, {"compound": "CC1(C)CC(=O)C2=C(C1)Nc1ccccc1N1C(=O)c3ccccc3C21", "note": "(centres undefined)", "survival": "inactive: 114%"}, {"compound": "Cc1ccc(CCNC(=O)c2cc(-c3ccc(Cl)cc3)n[nH]2)cc1", "survival": "inactive: 97%"}, {"compound": "Cc1ccc(Nc2cc(C(=O)NCc3cccs3)c3ccccc3n2)c(C)c1", "survival": "inactive: 91%"}, {"compound": "COc1ccccc1CN1CCN(C2CCN(C(=O)NC(C)C)CC2)C(=O)C1=O", "survival": "inactive: 74%"}, {"compound": "COc1ccc(Nc2ncc3c(n2)CCN(C(=O)OC(C)(C)C)C3)cc1", "survival": "inactive: 71%"}, {"compound": "COc1cc2ccccc2cc1C(=O)Nc1ccc2oc(-c3ccccc3)nc2c1", "survival": "active: 4%"}, {"compound": "CCOc1ccccc1C(=O)N(Cc1cccs1)c1ccc(Cl)cc1", "survival": "inactive: 86%"}, {"compound": "CC(C)Cc1nnc(NC(=O)c2ccccc2)s1", "survival": "inactive: 97%"}, {"compound": "CCc1ccc2c(c1)-c1ccccc1S(=O)(=O)N2CC(=O)N1CCC(C)CC1", "survival": "inactive: 82%"}, {"compound": "Cc1ccccc1CNC(=O)CCC(=O)N1CC2CCCN2c2ccccc21", "note": "(centres undefined)", "survival": "inactive: 65%"}, {"compound": "Cc1cc(O)c(-c2ccnc3cc(-c4ccccc4)nn23)cc1Cl", "survival": "inactive: 108%"}, {"compound": "CC(=O)c1ccc(NC(=O)Cn2ncc3c(C)n(Cc4ccc(F)cc4)c(C)c3c2=O)cc1", "survival": "inactive: 74%"}, {"compound": "CCN(CC)N=Nc1ccc(C(=O)O)cc1", "survival": "inactive: 111%"}, {"compound": "COc1ccccc1C(=O)Nc1nc2nc(C)c(Cc3ccccc3)c(=O)n2[nH]1", "survival": "inactive: 113%"}, {"compound": "CCSc1nc(Cl)c2ccccc2n1", "survival": "inactive: 103%"}, {"compound": "COc1ccccc1CNc1ncnc2c1c(-c1ccccc1)cn2-c1cccc(C)c1", "survival": "inactive: 74%"}, {"compound": "CC1CCN(S(=O)(=O)c2ccc3c(c2)N(CC(=O)N2CCN(c4ccccc4)CC2)C(=O)CO3)CC1", "survival": "inactive: 87%"}, {"compound": "COc1cccc(Cn2c(CNS(=O)(=O)c3ccc4c(c3)CCCC4)nc3cccnc32)c1", "survival": "inactive: 76%"}, {"compound": "C=CCn1c(C(NC(=O)c2ccc(Cl)cc2Cl)C(C)C)n[nH]c1=S", "note": "(centres undefined)", "survival": "inactive: 121%"}, {"compound": "COc1ccc(Cl)cc1NC(=O)N1CC(=O)Nc2sc3c(c2C1c1ccccc1)CCCC3", "note": "(centres undefined)", "survival": "inactive: 75%"}, {"compound": "CCN(CC)C(=O)CSc1nc2ccccc2c(=O)n1Cc1ccco1", "survival": "inactive: 73%"}, {"compound": "CC(=O)N(C)c1ccc(N=Nc2c(-c3ccccc3)[nH][nH]c2=O)cc1", "survival": "inactive: 119%"}, {"compound": "Cc1nn(CCCC(=O)Nc2cccc(F)c2)c(=O)c2c1sc1ccccc12", "survival": "inactive: 55%"}, {"compound": "COc1cc2c(C(=O)N(C)c3cc(Cl)ccc3OC)cn(CC(C)C)c(=O)c2cc1OC", "survival": "inactive: 89%"}, {"compound": "CCN(C(=O)Cn1c(=O)n(CC2CCC(C(=O)NC)CC2)c(=O)c2sccc21)c1ccccc1", "note": "(centres undefined)", "survival": "inactive: 88%"}, {"compound": "COc1ccc(NC(=O)CN2C(=O)CCc3cc(S(=O)(=O)N4CCOCC4)ccc32)cc1Cl", "survival": "inactive: 75%"}, {"compound": "S=C(Nc1ccccc1)NC1CC2CCCC(C1)N2C1CC1", "note": "(centres undefined)", "survival": "inactive: 108%"}, {"compound": "CC(C)NC(=O)/C=C/c1ccc2c(c1)OCO2", "survival": "inactive: 110%"}, {"compound": "O=C(Nc1ccccc1)c1cn(-c2ccccc2)nc1-c1ccccc1", "survival": "inactive: 86%"}, {"compound": "Cc1cccc(-n2c3nc(=O)[nH]c(=O)c-3cc3c(C)nn(-c4ccccc4)c32)c1C", "survival": "inactive: 80%"}, {"compound": "COc1ccccc1NC(=O)CSC1=Nc2ccccc2N=C(c2ccc(F)cc2)C1", "survival": "inactive: 71%"}, {"compound": "COc1ccc(Cn2ccc3nc(C)c(C(=O)Nc4ccc(OC(F)(F)F)cc4)cc3c2=O)cc1", "survival": "inactive: 90%"}, {"compound": "CCOC(=O)c1c(Nc2cc(C)cc(C)c2)nnc(-c2ccccc2)c1-c1ccccc1", "survival": "inactive: 38%"}, {"compound": "CSc1ccc(CNC(=O)c2cc3cc(S(=O)(=O)N4CCCCC4)ccc3n2C)cc1", "survival": "inactive: 76%"}, {"compound": "CCCCC(=O)OC1=C(C(=O)c2ccccc2)N(CC)S(=O)(=O)c2ccccc21", "survival": "inactive: 71%"}, {"compound": "N#CC(C#N)=C(N1CCOCC1)C(F)(F)F", "survival": "inactive: 108%"}, {"compound": "COc1cccc(CNC(=O)C2CCN(S(=O)(=O)N3CCC(C)CC3)CC2)c1", "survival": "inactive: 76%"}, {"compound": "CC1CCN(S(=O)(=O)c2ccc3nc(Nc4ccc(C#N)cc4)ccc3c2)CC1", "survival": "inactive: 68%"}, {"compound": "Cc1cccc(OCCSc2nc(-c3cccs3)nc3cc(=O)[nH]n23)c1", "survival": "inactive: 66%"}, {"compound": "COc1ccccc1N1CCN(S(=O)(=O)c2c(C)nc3sc(C)c(C)n3c2=O)CC1", "survival": "inactive: 85%"}, {"compound": "COc1ccccc1CNS(=O)(=O)c1ccc(F)c(C(=O)Nc2cc(Cl)ccc2OC)c1", "survival": "inactive: 127%"}, {"compound": "O=C(NCC(c1cccnc1)N1CCc2ccccc2C1)C(=O)Nc1ccccc1", "note": "(centres undefined)", "survival": "inactive: 84%"}, {"compound": "COC(=O)C1=CN(CCCN2CCCC2=O)C=C(C(=O)OC)C1c1cccc(F)c1", "survival": "inactive: 104%"}, {"compound": "COc1cccc2c1Oc1ncccc1N(C(=O)Nc1cccc(Cl)c1)C2", "survival": "inactive: 71%"}, {"compound": "Cn1nc(-c2ccc(C(=O)Nc3cccc(C(F)(F)F)c3)cc2)c2ccccc2c1=O", "survival": "inactive: 69%"}, {"compound": "CC(=O)NC1C(=O)N=C(SCC(=O)NC(C)c2ccccc2)NC1=O", "note": "(centres undefined)", "survival": "inactive: 108%"}, {"compound": "CCCCC(=O)OC1=C(C(=O)c2ccccc2)N(C)S(=O)(=O)c2ccccc21", "survival": "inactive: 108%"}, {"compound": "COc1ccc(CNS(=O)(=O)c2cnc(N)nc2)cc1", "survival": "active: -4%"}, {"compound": "CCOc1ccc(NS(=O)(=O)c2ccc3[nH]cc(C(=O)NCc4ccccc4)c(=O)c3c2)cc1", "survival": "inactive: 74%"}, {"compound": "Cc1cccc(CNC(=O)c2ccc3c(c2)N(C)C(=O)C2CCCCN32)c1", "note": "(centres undefined)", "survival": "active: -3%"}, {"compound": "O=C(Nc1ccc(F)cc1F)c1cnn(-c2ccc(F)cc2)c1-n1cccc1", "survival": "inactive: 73%"}, {"compound": "CCOc1ccccc1NC(=O)CN1c2ccccc2S(=O)(=O)c2ccccc21", "survival": "active: 10%"}, {"compound": "Cc1ccc(CNC(=O)c2cc(S(=O)(=O)N3CCCCCC3)cn2C)cc1", "survival": "inactive: 81%"}]}]}
